Read-outs that look alike come from different tables or passages of the source.
Assays:
Assay in all cases: microbe, parasite or virus in culture
Format in all cases: cell-based
[1] = tested on: IIIB strain of HIV-1 (wild-type)
[2] = tested on: HIV-1 variant strain with Y181C mutation in RT
[3] = tested on: HIV-1 variant strain with K103N/Y181C mutations in RT
[4] = Human immunodeficiency virus 1, IIIB, MT2, Table 1, 50% protection in MT-2 cells, NA = EC50 > CC50, read-out: WT EC50
[5] = Human immunodeficiency virus 1, MT2, Table 1, 50% protection in MT-2 cells, NA = EC50 > CC50, read-out: Y181C EC50
[6] = Human immunodeficiency virus 1, MT2, read-out: 103N181C EC50, Table 1, 50% protection in MT-2 cells, NA = EC50 > CC50
[7] = Human immunodeficiency virus 1, IIIB, MT2, Table 4, 50% protection in MT-2 cells, NA = EC50 > CC50, read-out: WT EC50
[8] = Human immunodeficiency virus 1, MT2, Table 4, 50% protection in MT-2 cells, NA = EC50 > CC50, read-out: Y181C EC50
[9] = Human immunodeficiency virus 1, MT2, read-out: K103N/Y181C EC50, Table 4, 50% protection in MT-2 cells, NA = EC50 > CC50
[10] = Human immunodeficiency virus 1, MT2, read-out: EC50 towards K103N/Y181C variant, MT-2 cell assay
[11] = read-out: EC50 towards K103N/Y181C variant, MT-2 cell assay
[12] = Human immunodeficiency virus 1, IIIB, MT2, text, MT-2 cell assay, read-out: EC50 towards wild-type HIV-1

N#Cc1cc2c(Oc3ccc(Cl)cc3OCCn3ccc(=O)[nH]c3=O)cccn2c1 [10m, 8-(4-chloro-2-(2-(2,4-dioxo-3,4-dihydropyrimidin-1(2H)-yl)ethoxy)phenoxy)indolizine-2-carbonitrile]
EC50 [1, 4]: 5.1 nM
EC50 [2, 5]: 1800 nM
EC50 [3, 6]: 900 nM

O=c1ccn(CCOc2ccccc2Oc2cccc3cc(Cl)ccc23)c(=O)[nH]1 [14c, 1-(2-(2-((6-chloronaphthalen-1-yl)oxy)phenoxy)ethyl)pyrimidine-2,4(1H,3H)-dione]
EC50 [1, 7]: 14 nM
EC50 [2, 8]: 1000 nM
EC50 [3, 9]: 710 nM

N#Cc1cc2c(Oc3ccccc3OCCn3ccc(=O)[nH]c3=O)cc(Cl)cc2o1 [12c, 6-chloro-4-(2-(2-(2,4-dioxo-3,4-dihydropyrimidin-1(2H)-yl)ethoxy)phenoxy)benzofuran-2-carbonitrile]
EC50 [1, 4]: 19 nM
EC50 [1, 7]: 19 nM
EC50 [2, 5]: 1900 nM
EC50 [2, 8]: 1900 nM
EC50 [3, 6]: 260 nM
EC50 [3, 9]: 260 nM

Cc1cc(Oc2ccccc2OCCn2ccc(=O)[nH]c2=O)c2cc(C#N)cn2c1 [10c, 8-(2-(2-(2,4-dioxo-3,4-dihydropyrimidin-1(2H)-yl)ethoxy)phenoxy)-6-methylindolizine-2-carbonitrile]
EC50 [1, 4]: 0.9 nM
activity towards the wild-type virus, in words ([1]; MT-2 cell assay): high picomolar inhibitors
EC50 [2, 5]: 800 nM
EC50 [3, 6]: 32 nM

Cc1ccc2c(Oc3ccccc3OCCn3ccc(=O)[nH]c3=O)cccc2c1 [14b, 1-(2-(2-((6-methylnaphthalen-1-yl)oxy)phenoxy)ethyl)pyrimidine-2,4(1H,3H)-dione]
EC50 [1, 7]: 250 nM
EC50 [2, 8]: 12000 nM
EC50 [3, 9]: 15000 nM

Cc1cc(Oc2ccc(F)cc2OCCn2ccc(=O)[nH]c2=O)c2cc(C#N)cn2c1 [10g, 8-(2-(2-(2,4-dioxo-3,4-dihydropyrimidin-1(2H)-yl)ethoxy)-4-fluorophenoxy)-6-methylindolizine-2-carbonitrile]
EC50 [1, 4]: 2 nM
EC50 [2, 5]: 400 nM
EC50 [3, 6]: 250 nM

N#Cc1cc2c(Oc3ccc(F)cc3OCCn3ccc(=O)[nH]c3=O)cccc2o1 [12d, 4-(2-(2-(2,4-dioxo-3,4-dihydropyrimidin-1(2H)-yl)ethoxy)-4-fluorophenoxy)benzofuran-2-carbonitrile]
EC50 [1, 4]: 40 nM
EC50 [1, 7]: 40 nM
EC50 [2, 5]: 3500 nM
EC50 [2, 8]: 3500 nM
EC50 [3, 6]: 4000 nM
EC50 [3, 9]: 4000 nM

N#Cc1ccc2c(Oc3ccccc3OCCn3ccc(=O)[nH]c3=O)cc(F)cc2c1 [14k, 5-(2-(2-(2,4-dioxo-3,4-dihydropyrimidin-1(2H)-yl)ethoxy)phenoxy)-7-fluoro-2-naphthonitrile]
EC50 ([1]; Human immunodeficiency virus 1, IIIB, MT2, Table 3, 50% protection in MT-2 cells, NA = EC50 > CC50, read-out: WT EC50): 1.1 nM
EC50 [1, 7]: 1.1 nM
EC50 ([2]; Human immunodeficiency virus 1, MT2, Table 3, 50% protection in MT-2 cells, NA = EC50 > CC50, read-out: Y181C EC50): 8 nM
EC50 [2, 8]: 8 nM
EC50 ([2]; Human immunodeficiency virus 1, MT2, text, MT-2 cell assay): < 10 nM
EC50 ([3]; Human immunodeficiency virus 1, MT2, read-out: 103N181C EC50, Table 3, 50% protection in MT-2 cells, NA = EC50 > CC50): 6 nM
EC50 [3, 10]: ~10 nM
EC50 [3, 9]: 6 nM
EC50 [3, 11]: < 10 nM

N#Cc1cc2c(Oc3ccc(Cl)cc3OCCn3ccc(=O)[nH]c3=O)cc(Cl)cn2c1 [10n, 6-chloro-8-(4-chloro-2-(2-(2,4-dioxo-3,4-dihydropyrimidin-1(2H)-yl)ethoxy)phenoxy)indolizine-2-carbonitrile]
EC50 [1, 4]: 22 nM
EC50 [2, 5]: 410 nM
EC50 [3, 6]: 530 nM

Cc1cc(Oc2ccccc2OCCn2ccc(=O)[nH]c2=O)c2cc(C#N)oc2c1 [12b, 4-(2-(2-(2,4-dioxo-3,4-dihydropyrimidin-1(2H)-yl)ethoxy)phenoxy)-6-methylbenzofuran-2-carbonitrile]
EC50 [1, 4]: 210 nM
EC50 [1, 12]: 210 nM
EC50 [3, 6]: 1300 nM

N#Cc1cc2c(Oc3ccccc3OCCn3ccc(=O)[nH]c3=O)cccc2[nH]1 [8d, 4-(2-(2-(2,4-dioxo-3,4-dihydropyrimidin-1(2H)-yl)ethoxy)phenoxy)-1H-indole-2-carbonitrile]
EC50 [1, 4]: 56 nM
EC50 [1, 7]: 56 nM
EC50 [1, 12]: 56 nM
EC50 [2, 5]: 38000 nM
EC50 [2, 8]: 38000 nM
EC50 [3, 6]: 5500 nM
EC50 [3, 9]: 5500 nM

N#Cc1cc2c(Oc3cc(F)ccc3OCCn3ccc(=O)[nH]c3=O)cccn2c1 [10j, 8-(2-(2-(2,4-dioxo-3,4-dihydropyrimidin-1(2H)-yl)ethoxy)-5-fluorophenoxy)indolizine-2-carbonitrile]
EC50 [1, 4]: 2 nM
EC50 [2, 5]: 9000 nM
EC50 [3, 6]: 220 nM

N#Cc1cc2c(Oc3ccc(Cl)cc3OCCn3ccc(=O)[nH]c3=O)cccc2o1 [12h, 4-(4-chloro-2-(2-(2,4-dioxo-3,4-dihydropyrimidin-1(2H)-yl)ethoxy)phenoxy)benzofuran-2-carbonitrile]
EC50 [1, 4]: 7 nM
EC50 [1, 7]: 7 nM

N#Cc1cc2c(Oc3cc(F)c(F)cc3OCCn3ccc(=O)[nH]c3=O)cccn2c1 [10k, 8-(2-(2-(2,4-dioxo-3,4-dihydropyrimidin-1(2H)-yl)ethoxy)-4,5-difluorophenoxy)indolizine-2-carbonitrile]
EC50 [1, 4]: 3.2 nM
EC50 [2, 5]: 1200 nM
EC50 [3, 6]: 500 nM

O=c1ccn(CCOc2cc(Cl)ccc2Oc2cccc3[nH]ccc23)c(=O)[nH]1 [8b, 1-(2-(2-((1H-indol-4-yl)oxy)-5-chlorophenoxy)ethyl)pyrimidine-2,4(1H,3H)-dione]
EC50 [1, 4]: 1600 nM

Cc1cc(Oc2ccccc2OCCn2ccc(=O)[nH]c2=O)c2[nH]ccc2c1 [9a, 1-(2-(2-((5-methyl-1H-indol-7-yl)oxy)phenoxy)ethyl)pyrimidine-2,4(1H,3H)-dione]
EC50 [1, 4]: 6000 nM

N#Cc1ccc2c(Oc3ccc(Cl)cc3OCCn3ccc(=O)[nH]c3=O)cccc2c1 [14j, 5-(4-chloro-2-(2-(2,4-dioxo-3,4-dihydropyrimidin-1(2H)-yl)ethoxy)phenoxy)-2-naphthonitrile]
EC50 [1, 7]: 1.5 nM
EC50 [2, 8]: 48 nM
EC50 [3, 9]: 290 nM

N#Cc1cc2c(Oc3ccccc3OCCn3ccc(=O)[nH]c3=O)cccn2c1 [10b, 8-(2-(2-(2,4-dioxo-3,4-dihydropyrimidin-1(2H)-yl)ethoxy)phenoxy)indolizine-2-carbonitrile]
EC50 [1, 4]: 0.38 nM
EC50 [1, 7]: 0.38 nM
EC50 [1, 12]: 0.38 nM
EC50 [2, 5]: 310 nM
EC50 [2, 8]: 310 nM
EC50 [3, 6]: 11 nM
EC50 [3, 10]: 11 nM
EC50 [3, 9]: 11 nM
EC50 [3, 11]: ~10 nM

Cc1cc2c(Oc3ccccc3OCCn3ccc(=O)[nH]c3=O)cccc2[nH]1 [8c, 1-(2-(2-((2-methyl-1H-indol-4-yl)oxy)phenoxy)ethyl)pyrimidine-2,4(1H,3H)-dione]
EC50 [1, 4]: 390 nM

N#Cc1cc2c(Oc3ccccc3OCCn3ccc(=O)[nH]c3=O)cccc2o1 [12a, 4-(2-(2-(2,4-dioxo-3,4-dihydropyrimidin-1(2H)-yl)ethoxy)phenoxy)benzofuran-2-carbonitrile]
EC50 [1, 4]: 18 nM
EC50 [1, 7]: 18 nM
EC50 [1, 12]: 18 nM
EC50 ([1]; MT-2 cell assay, listed as 9c, read-out: EC50 towards wild-type HIV-1): 19 nM
EC50 [3, 6]: 420 nM
EC50 [3, 9]: 420 nM

Cc1cc2cccc(Oc3ccccc3OCCn3ccc(=O)[nH]c3=O)c2[nH]1 [9b, 1-(2-(2-((2-methyl-1H-indol-7-yl)oxy)phenoxy)ethyl)pyrimidine-2,4(1H,3H)-dione]
activity towards the wild-type virus, in words ([1]; MT-2 cell assay): inactive

Cc1cc2c(Oc3ccc(Cl)cc3OCCn3ccc(=O)[nH]c3=O)cccc2o1 [12g, 1-(2-(5-chloro-2-((2-methylbenzofuran-4-yl)oxy)phenoxy)ethyl)pyrimidine-2,4(1H,3H)-dione]
EC50 [1, 4]: 25 nM

Cc1cc2c(Oc3ccccc3OCCn3ccc(=O)[nH]c3=O)cccn2c1 [10a, 1-(2-(2-((2-methylindolizin-8-yl)oxy)phenoxy)ethyl)pyrimidine-2,4(1H,3H)-dione]
EC50 [1, 4]: 50 nM

O=c1ccn(CCOc2cc(Cl)ccc2Oc2cccc3occc23)c(=O)[nH]1 [12f, 1-(2-(2-(benzofuran-4-yloxy)-5-chlorophenoxy)ethyl)pyrimidine-2,4(1H,3H)-dione]
EC50 [1, 4]: 800 nM

Cc1cc(Oc2ccccc2OCCn2ccc(=O)[nH]c2=O)c2cc(C#N)[nH]c2c1 [8e, 4-(2-(2-(2,4-dioxo-3,4-dihydropyrimidin-1(2H)-yl)ethoxy)phenoxy)-6-methyl-1H-indole-2-carbonitrile]
EC50 [1, 4]: 10 nM
EC50 [1, 7]: 10 nM
EC50 [1, 12]: 10 nM
EC50 [3, 6]: 800 nM
EC50 [3, 9]: 800 nM

O=c1ccn(CCOc2cc(Cl)ccc2Oc2cccc3ccoc23)c(=O)[nH]1 [13a, 1-(2-(2-(benzofuran-7-yloxy)-5-chlorophenoxy)ethyl)pyrimidine-2,4(1H,3H)-dione]
EC50 [1, 4]: 900 nM

Cc1cc(Oc2ccc(F)cc2OCCn2ccc(=O)[nH]c2=O)c2cc(C#N)oc2c1 [12e, 4-(2-(2-(2,4-dioxo-3,4-dihydropyrimidin-1(2H)-yl)ethoxy)-4-fluorophenoxy)-6-methylbenzofuran-2-carbonitrile]
EC50 [1, 4]: 260 nM
EC50 [3, 6]: 5000 nM

O=c1ccn(CCOc2ccccc2Oc2cccc3[nH]ccc23)c(=O)[nH]1 [8a, 1-(2-(2-((1H-indol-4-yl)oxy)phenoxy)ethyl)pyrimidine-2,4(1H,3H)-dione]
EC50 [1, 4]: 85 nM
EC50 [1, 12]: 85 nM

— patent publication US9382245B2, “Compounds and methods for treating HIV infections” (priority 2013, dated 2016)
